“And” between values parts separate entries of the source, which are not always exact repeats. Equal values may be shown once. The campaign covered roughly 94,000 compounds. About 4,000 (4.3%) were called active. Inconclusive results, whose numbers are uncertain, are shown with a selection of clear calls. Calls follow the shape of the dose curve; as a rule, active = well fitted inhibition curve with a large enough effect; inconclusive = small, poorly fitted or top-dose-only effect; inactive = no such curve, though single readings can be large or run the other way. Potencies of inconclusive entries are doubtful fits and often do not repeat.
Test: Cytotoxic Profiling in NIH 3T3 Cell Line of Diverse Libraries Using Quantitative High-Throughput Screening; also: nearly all actives have a fitted effect of over 55% in size
Conditions: NIH 3T3 viability, CellTiter-Glo ATP luminescence, 48-72 h; activity change, negative = cytotoxicity: at 96.7 µM (top of the series); series mostly up to 96.7 µM
From the text: Cell-based phenotypic screening is a commonly used approach to discover biological pathways, novel drug targets, chemical probes and high-quality hit-to-lead molecules. Many hits identified from high-throughput screening campaign are ruled out through a series of follow-up potency, selectivity/specificity, and cytotoxicity assays. Prioritization of molecules with little or no cytotoxicity for a more in-depth downstream evaluation influence the future direction of projects, so cytotoxicity profiling of the screening libraries at early stage is essential for increasing the likelihood of candidate success. In this study, we analyzed results from a cell-based cytotoxicity screening campaign, comprising nearly 10,000 compounds in NCATS annotated libraries, and over 100,000 compounds in a diversity library, evaluated in four normal cell lines (HEK 293, NIH 3T3, CRL-7250 and HaCat) and a cancer cell line (KB 3-1, a HeLa subline) with overall screening outcomes, hit rates, pan-activity and selectivity. For the annotated library, we also examined the primary targets and mechanistic pathways regularly associated with cell death. To our knowledge, this is the first study to use high-throughput screening to profile large libraries for cytotoxicity assessment in both normal and cancer cell lines. In summary, the results generated here constitutes a valuable resource for the scientific community and provides insight on identifying cytotoxic compounds with particular mechanisms of action, and prioritizing compounds with suitable cytotoxicity profile for further evaluation.
NIH 3T3 cells were seeded into white 1536-well plates using a Multidrop Combi peristaltic dispenser (ThermoFisher, Waltham, MA) at a density of 400 cells/well in 5 uL of medium respectively. A pintool (Kalypsys) was used to transfer 23 nL of compound solution to the 1536-well assay plates. After 48 or 72 hr incubation at 37 degree Celsius, 5% CO2 and 95% humidity, 2.5 uL of CellTiter-Glo (Promega) was dispensed into each well using a dispenser (Aspect Automation, St. Paul, MN) with solenoid valves (Lee Valves, Westbrook CT). Plates were left at room temperature for 10 min before imaging the ATP-coupled luminescence using a ViewLux microplate imager (PerkinElmer, Waltham, MA).
% is scaled to controls: 0 for no effect and ±100 for the full control effect; potency is read from the fitted curve at half-maximal effect; tags tell the direction and shape of the fitted curve.

| Compound | Potency | activity change, negative = cytotoxicity | outcome |
| --- | --- | --- | --- |
| O=C(Nc1cccc(C(F)(F)F)c1)c1nc2c(o1)CCN(Cc1cccc(F)c1)CC2 | inconclusive: 22.4 µM [inhibitor, full curve, poor fit] | – | – |
| CCN1c2cc(C(=O)Nc3ccc(OC)cc3)ccc2C(=O)N2CCCCC21 (stereo not given) | inconclusive: 50.1 µM [inhibitor, partial curve, poor fit] | – | – |
| CC(C)C(=O)N1Cc2ccccc2CC2(CCCN(CC3CCOCC3)C2)C1 (stereo not given) | inconclusive: 141 µM [inhibitor, single point] | – | – |
| COc1ccc(-c2ccc(C(=O)Nc3ccccc3Cl)cc2)nn1 | – | inactive: -26.6% [at 138 µM] | – |
| COCC1CN(C(C)=O)CC12CCN(C(=O)C1CC=CCC1)CC2 (stereo not given) | – | inactive: -5.78% | – |
| Cc1nn(-c2ccccc2)c(C)c1[C@@H]1C=C[C@@H](NC(=O)CCCC(=O)O)C1 | – | – | inactive [at 174 µM] |
| COc1cccc(S(=O)(=O)N2CCC3(CC2)C(OC)CN3c2cccc(F)c2)c1 (stereo not given) | – | inactive: -12% | – |
| COc1ccc(Nc2ccnc(N3CCN(C(=O)c4ccc(C)cc4)CC3)n2)cc1 | active: 31.6 µM | – | – |
| CCc1nc(C)c(C(=O)N2C[C@H]3CC[C@@H]2CN(C(=O)c2ccccc2)C3)s1 | inconclusive: 89.1 µM [inhibitor, single point] | – | – |
| CC(C)Cn1c(=O)c(C(=O)N2CCCCC2)nc2cccnc21 | – | inactive: -18.3% [at 138 µM] | – |
| O=C(Cc1ccc(F)cc1)N1CCC[C@H]1c1nc(-c2ccccc2)no1 | inconclusive: 50.1 µM [inhibitor, partial curve, poor fit] | – | – |
| Cc1cccc(-c2cccc(CN3CCCC(C(=O)NCC4CC4)C3)c2)c1 (stereo not given) | inconclusive: 44.7 µM [inhibitor, partial curve, poor fit] | – | – |
| Cc1cccc(-c2cccc(CN3CCC(NC(=O)c4cccnc4)CC3)c2)c1 | inconclusive: 44.7 µM [inhibitor, partial curve, poor fit] | – | – |
| Cc1nn(-c2ccccc2)c2c1C(C)N(C1CN(C(=O)NC(C)C)C1)C2=O (stereo not given) | inconclusive: 79.4 µM [inhibitor, partial curve, poor fit] | – | – |
| Cn1ncc2c(C(=O)NCCc3ccccn3)cc(-c3ccc(C(F)(F)F)cc3)nc21 | inconclusive: 44.7 µM [inhibitor, partial curve, poor fit] | – | – |
| COc1ccc(-c2nc3c(c(=O)[nH]2)CCN(C(=O)c2ccccc2OC(F)(F)F)C3)cc1 | inconclusive: 20 µM [inhibitor, full curve] | – | – |
| COc1cccc(-c2cc3c(=O)n(CCNC(=O)Cc4ccc(Cl)cc4)ccn3n2)c1 | – | inactive: -25.5% | – |
| Cc1nn(-c2ccccc2)c(C)c1CC(=O)NC1CCCc2c1[nH]c1ccccc21 (stereo not given) | inconclusive: 17.8 µM [inhibitor, full curve, poor fit] | – | – |
| Cc1nn(-c2ccc(F)cc2)c(Oc2cccc(F)c2)c1CCC(=O)NCC1CC1 | inconclusive: 50.1 µM [inhibitor, partial curve, poor fit] | – | – |
| COc1ccc(N2Cc3c(NCCc4ccc(Cl)cc4)ncnc3N(C)CC2=O)cc1 | inconclusive: 50.1 µM [inhibitor, partial curve, poor fit] | – | – |
| O=C(COc1ccccc1)N1CC(CNc2cccnc2)C2(C1)CN(c1ccccc1)C2 (stereo not given) | inconclusive: 56.2 µM [inhibitor, partial curve, poor fit] | – | – |
| Cc1ccc(CN2CCN(c3cc(C)nc(N)n3)CC2CCO)cc1 (stereo not given) | inconclusive: 56.2 µM [inhibitor, partial curve, poor fit] | – | – |

| Compound | Potency | activity change, negative = cytotoxicity | outcome |
| --- | --- | --- | --- |
| CCCCCC(=O)Nc1nc2c(s1)C[C@@H]1[C@](C)(CO)[C@H](O)CC[C@@]1(C)[C@@H]2CC(=O)NCc1cc(F)cc(F)c1 | inconclusive: 31.6 µM [inhibitor, full curve] | – | – |
| O=C1NCc2ccccc2CC12CCN(Cc1ccc(Cl)o1)C2 (stereo not given) | – | inactive: -20.8% | – |
| CCCC(=O)N1CCC(O)(c2ccccc2)[C@H](N2CCCC2)C1 (stereo not given in full) | inconclusive: 44.7 µM [inhibitor, partial curve, poor fit] | – | – |
| CC(C)N1C[C@H](O)C[C@H]1c1nnc2n1CCN(C(=O)c1cccc3nccnc13)CC2 | – | – | inactive |
| CCCCc1cc(C[C@H]2CNCC[C@H]2CC(=O)N2CCC(Cc3ccccc3)CC2)no1 | active: 28.2 µM | – | – |
| COc1ccc(C(=O)N2CCCC(Cc3ncc(C)n3C(C)C)C2)cn1 (stereo not given) | – | inactive: -26.8% | – |
| COc1ccc(C(=O)N[C@H]2C[C@@H](Cc3cc(CN4CCOCC4)on3)C2(C)C)cc1 | – | inactive: -21.2% [at 138 µM] | – |
| Fc1ccc(-c2ccc3ncc(Nc4ccc(Cl)cn4)n3n2)cc1 | active: 100 µM | – | – |
| O=C(CN1C(=O)NC(c2ccc(Cl)cc2)C2=C1COC2=O)Nc1ccc(F)c(Cl)c1 (stereo not given) | active: 39.8 µM | – | – |
| Cc1cccnc1CN1C[C@@H](F)[C@@H](OCc2nc3ccccc3n2C)C1 | inconclusive: 100 µM [inhibitor, single point] | – | – |
| O=c1[nH]c(C2CCCN(Cc3ccccc3)C2)nc2ccc(F)cc12 (stereo not given) | inconclusive: 39.8 µM [inhibitor, partial curve, poor fit] and active: 28.2 µM | – | – |
| O=c1[nH]ccn1C1CCN(Cc2ccccc2C(F)(F)F)CC1 | inconclusive: 56.2 µM [inhibitor, partial curve, poor fit] | – | – |
| COC(=O)[C@@H]1Cc2c([nH]c3ccccc23)[C@H]2C[C@@H](NC3CC3)C[C@@H](c3ccc(F)cc3)N21 | active: 28.2 µM | – | – |
| Cc1noc([C@@H]2C[C@H](NC(=O)c3ccc(-c4ccccc4)cc3)CN2C)n1 | inconclusive: 56.2 µM [inhibitor, partial curve, poor fit] | – | – |
| CC(=O)Nc1cccc(-c2cc3c(cn2)CN(Cc2ccccc2)CCN3)c1 | inconclusive: 100 µM [inhibitor, single point] | – | – |
| CCCNC(=O)C1CCc2ncc(-c3ccc(OC)cc3)n2C1 (stereo not given) | inconclusive: 35.5 µM [inhibitor, partial curve, poor fit] | – | – |
| CCN1c2cc(C(=O)Nc3cccc(OC(F)(F)F)c3)ccc2C(=O)N2CCCCCC21 (stereo not given) | active: 28.2 µM | – | – |
| O=C(c1cccc(Cl)c1)N1CCN(C(=O)c2nnn3c2COC(c2ccc(F)cc2)C3)CC1 (stereo not given) | inconclusive: 22.4 µM [inhibitor, full curve] | – | – |
| Cc1nnc2ccc(N3CCCC(NC(=O)c4ccc(Cl)nc4)C3)nn12 (stereo not given) | inconclusive: 50.1 µM [inhibitor, partial curve, poor fit] | – | – |
| CCCc1noc(CN2C(=O)NC(c3ccccc3OC)C3=C2COC3=O)n1 (stereo not given) | – | inactive: 4.77% | – |
| CCCN1C(=O)Cc2ccccc2C1C(=O)N1CCN(c2ccccc2)CC1 (stereo not given) | – | inactive: -9.71% | – |
| CC1CCCN(C(=O)CNC(=O)c2ccc(-c3cnc4ccccc4c3)cc2)C1 (stereo not given) | inconclusive: 50.1 µM [inhibitor, partial curve, poor fit] | – | – |

| Compound | Potency | activity change, negative = cytotoxicity | outcome |
| --- | --- | --- | --- |
| CNC(=O)N1c2ccccc2CC1c1nc(C(C)C)no1 (stereo not given) | – | inactive: -0.0709% | – |
| CC(C)NC(=O)c1cccc2c1CCN2C(=O)C1CC1 | inconclusive: 70.8 µM [inhibitor, single point] | – | – |
| Cc1ccc(C(=O)N2CCC(c3nc(-c4ccccc4)no3)C2)s1 (stereo not given) | inconclusive: 44.7 µM [inhibitor, partial curve, poor fit] | – | – |
| COc1cccc(-c2n[nH]c3c2CN(C(=O)c2oc(C)cc2C)CC3)c1 | inconclusive: 50.1 µM [inhibitor, partial curve, poor fit] | – | – |
| Cc1nn(-c2ccccc2)c(Oc2ccccc2F)c1CCC(=O)NC1CC1 | inconclusive: 56.2 µM [inhibitor, partial curve, poor fit] | – | – |
| COc1ccc(CCNC(=O)Cn2c(C)cc3nc4n(c(=O)c32)CCCCC4)cc1OC | inconclusive: 70.8 µM [inhibitor, partial curve, poor fit] | – | – |
| COCCNC(=O)CNC(=O)c1ccc(-c2cccc(C(F)(F)F)c2)cc1 | inconclusive: 31.6 µM [inhibitor, partial curve] | – | – |
| NCc1cccc(-c2cccc(O)c2)c1 | – | inactive: -21.2% [at 138 µM] | – |
| CC1=NS(=O)(=O)N(C)C=C1C(=O)OCc1nc(-c2ccc(C(F)(F)F)cc2)no1 | inconclusive: 44.7 µM [inhibitor, partial curve, poor fit] | – | – |
| COc1ccccc1CN1CC[C@H](CNC(=O)C2CC2)[C@H](N(C)C)C1 | – | inactive: -10.4% | – |
| COc1ccc(Cl)cc1C(=O)N1CCCC(n2cc(-c3noc(C)n3)nn2)C1 (stereo not given) | inconclusive: 70.8 µM [inhibitor, partial curve, poor fit] | – | – |
| Cc1ccc(C(=O)N[C@H]2C[C@@H](c3nc(Cc4ccccc4)no3)N(C)C2)cc1 | – | inactive: -30.4% [at 174 µM] | – |
| Cc1ccccc1CC(=O)N1CCC(Cc2nc(-c3cnccn3)no2)CC1 | – | inactive: -5.37% | – |
| CN(CC1CCOCC1)C(=O)Nc1cc(F)ccc1F | – | – | inactive |
| Cc1nn(-c2ccccc2[N+](=O)[O-])c(C)c1[C@@H]1C=C[C@@H](NCc2ccc(C(C)C)cc2)C1 | inconclusive: 22.4 µM [inhibitor, full curve, poor fit] | – | – |
| CCOCC(=O)Nc1nn(-c2ccc(F)cc2)c2cccc(N3CCOC3=O)c12 | – | inactive: -10.8% | – |
| O=C(c1ccccc1Cl)N1CCCN(c2ccc3nnc(C4CC4)n3n2)CC1 | – | inactive: -21.1% | – |
| COc1ccc(-c2cc(N3CCC(NC(=O)Cc4c(F)cccc4Cl)CC3)n[nH]2)cc1 | inconclusive: 44.7 µM [inhibitor, partial curve, poor fit] | – | – |
| CC1(COc2ccc(-c3nc(COc4ccccc4)no3)cn2)CCCNC1 (stereo not given) | inconclusive: 50.1 µM [inhibitor, partial curve, poor fit] | – | – |
| COc1ccc(C(=O)N2CC(C(=O)NC3CCCCC3)C3(CCOCC3)C2)cc1 (stereo not given) | – | inactive: -6.51% | – |
| COc1cccc(N2CC(C(=O)NCc3cccs3)NC2=O)c1 (stereo not given) | inconclusive: 50.1 µM [inhibitor, partial curve, poor fit] | – | – |

From PubChem BioAssay AID1345082 (National Center for Advancing Translational Sciences (NCATS), 2018)
